The structures appear in SMILES notation.

The test system of the test is MLKL phosphorylation, HT29-L23 human colorectal adenocarcinoma cells. Description: cells. The following applies: read-out: pMLKL HCS Cell Assay (IC50, uM).
As for `COc1ncc(-c2cc(C(F)(F)F)c3c(N)ncnn23)cc1C(=O)NC1CN(C(C)c2ccc(F)c(F)c2)C[C@@H]1F` (single isomer, unassigned) [Example 460], the IC50 amounted to 0.012 µM.

As to `Cc1cc(-c2cc(C(F)(F)F)c3c(N)ncnn23)cc(C(=O)N[C@@H]2CN(C(=O)CC(F)(F)F)C[C@@H]2F)c1Cl` [Example 717, 5-[4-amino-5-(trifluoromethyl)pyrrolo[2,1-f][1,2,4]triazin-7-yl]-2-chloro-N-[(3R,4S)-4-fluoro-1-(3,3,3-trifluoropropanoyl)pyrrolidin-3-yl]-3-methylbenzamide], the IC50 came out at 0.029 µM.

Consider `Nc1ncnn2c(-c3cccc(C(=O)Nc4cnn(Cc5ccccc5)c4)c3)ccc12` [Example 60, 3-(4-aminopyrrolo[2,1-f][1,2,4]triazin-7-yl)-N-(1-benzyl-1H-pyrazol-4-yl)benzamide], for which the IC50 turned out to be 0.041 µM.

Consider `CCc1ccc(-c2cc(C(F)(F)F)c3c(N)ncnn23)c(F)c1C(=O)N[C@@H]1CN(C(=O)CC(F)(F)F)C[C@@H]1F` [Example 735, 3-[4-amino-5-(trifluoromethyl)pyrrolo[2,1-f][1,2,4]triazin-7-yl]-6-ethyl-2-fluoro-N-[(3R,4S)-4-fluoro-1-(3,3,3-trifluoropropanoyl)pyrrolidin-3-yl]benzamide], for which the IC50 was found to be 0.105 µM.

As to `Cc1ccc(-c2cc(CN3CCC(C(F)(F)F)CC3)c3c(N)ncnn23)cc1C(=O)N[C@@H]1CN(C(=O)CC(O)(C(F)(F)F)C(F)(F)F)C[C@@H]1F` [Example 1650, 5-(4-amino-5-{[4-(trifluoromethyl)piperidin-1-yl]methyl}pyrrolo[2,1-f][1,2,4]triazin-7-yl)-N-[(3R,4S)-4-fluoro-1-[4,4,4-trifluoro-3-hydroxy-3-(trifluoromethyl)butanoyl]pyrrolidin-3-yl]-2-methylbenzamide], the IC50 turned out to be 0.0017 µM.

Turning to `Nc1ncnn2c(-c3cc(C(=O)N[C@@H]4CN(C(=O)C5CCC(F)(F)CC5)C[C@@H]4F)ccc3F)cc(C(F)(F)F)c12` [Example 425, 3-[4-amino-5-(trifluoromethyl)pyrrolo[2,1-f][1,2,4]triazin-7-yl]-N-[(3R,4S)-1-(4,4-difluorocyclohexane-carbonyl)-4-fluoropyrrolidin-3-yl]-4-fluorobenzamide], the IC50 came out at 0.051 µM.

Take `COc1ncc(-c2cc(C(F)(F)F)c3c(N)ncnn23)cc1C(=O)N[C@@H]1CN(S(=O)(=O)c2ccccc2C)C[C@@H]1F` [Example 1476, 5-[4-amino-5-(trifluoromethyl)pyrrolo[2,1-f][1,2,4]triazin-7-yl]-N-[(3R,4S)-4-fluoro-1-(2-methylbenzenesulfonyl)pyrrolidin-3-yl]-2-methoxypyridine-3-carboxamide]: the IC50 stood at 0.077 µM.

As for `Nc1ncnn2c(-c3cc(F)c(Cl)c(C(=O)N[C@@H]4CN(C(=O)C5CCC(F)(F)CC5)C[C@@H]4F)c3)cc(C(F)(F)F)c12` [Example 643, 5-[4-amino-5-(trifluoromethyl)pyrrolo[2,1-f][1,2,4]triazin-7-yl]-2-chloro-N-[(3R,4S)-1-(4,4-difluorocyclohexanecarbonyl)-4-fluoropyrrolidin-3-yl]-3-fluorobenzamide], the IC50 came to 0.032 µM.

`Cc1ncc(-c2cc(C(F)(F)F)c3c(N)ncnn23)cc1C(=O)N1CCC[C@H](Cc2ccc(F)cc2)C1` [Example 174, 7-{5-[(3R)-3-[(4-fluorophenyl)methyl]piperidine-1-carbonyl]-6-methylpyridin-3-yl}-5-(trifluoromethyl)pyrrolo[2,1-f][1,2,4]triazin-4-amine]: the IC50 came to 0.0066 µM.

Consider `Cc1ccc(-c2cc(C(F)(F)F)c3c(N)ncnn23)c(F)c1C(=O)N[C@@H]1CN(C(=O)C2CCC(F)(F)CC2)C[C@@H]1F` [Example 755, 3-[4-amino-5-(trifluoromethyl)pyrrolo[2,1-f][1,2,4]triazin-7-yl]-N-[(3R,4S)-1-(4,4-difluorocyclohexanecarbonyl)-4-fluoropyrrolidin-3-yl]-2-fluoro-6-methylbenzamide], for which the IC50 stood at 0.0096 µM.

Take `Cc1ccc(-c2cc(C(F)(F)F)c3c(N)ncnn23)cc1C(=O)N[C@@H]1CN(C(=O)c2ncccc2F)C[C@@H]1F` [Example 1010, 5-[4-amino-5-(trifluoromethyl)pyrrolo[2,1-f][1,2,4]triazin-7-yl]-N-[(3R,4S)-4-fluoro-1-(3-fluoropyridine-2-carbonyl)pyrrolidin-3-yl]-2-methylbenzamide]: the IC50 was 0.0096 µM.

On to `COc1ccc(-c2cc(C(F)(F)F)c3c(N)ncnn23)cc1C(=O)NCCC(C)c1ccccc1` (racemic) [Example 160, 5-[4-amino-5-(trifluoromethyl)pyrrolo[2,1-f][1,2,4]triazin-7-yl]-2-methoxy-N-(3-phenylbutyl)benzamide], for which the 50% inhibitory concentration (IC50) turned out to be 0.012 µM.

Turning to `CCOc1ccc(-c2cc(C(F)(F)F)c3c(N)ncnn23)cc1C(=O)N[C@@H]1CN(C(=O)C2(F)CC2)C[C@@H]1F` [Example 1104, 5-[4-amino-5-(trifluoromethyl)pyrrolo[2,1-f][1,2,4]triazin-7-yl]-2-ethoxy-N-[(3R,4S)-4-fluoro-1-(1-fluorocyclopropanecarbonyl)pyrrolidin-3-yl]benzamide], the 50% inhibitory concentration (IC50) worked out at 0.057 µM.

As for `Nc1ncnn2c(-c3ccc(Cl)c(C(=O)N[C@@H]4CN(C(=O)c5ccccc5Cl)C[C@@H]4F)c3)cc(C(F)(F)F)c12` [Example 963, 5-[4-amino-5-(trifluoromethyl)pyrrolo[2,1-f][1,2,4]triazin-7-yl]-2-chloro-N-[(3R,4S)-1-(2-chlorobenzoyl)-4-fluoropyrrolidin-3-yl]benzamide], the IC50 was 0.034 µM.

In the case of `COc1ncc(-c2cc(C(F)(F)F)c3c(N)ncnn23)cc1C(=O)N[C@@H]1CN(C(=O)C(C)C(F)(F)F)C[C@@H]1F` (stereo partly drawn) [Example 1225, 5-[4-amino-5-(trifluoromethyl)pyrrolo[2,1-f][1,2,4]triazin-7-yl]-N-[(3R,4S)-4-fluoro-1-(3,3,3-trifluoro-2-methylpropanoyl)pyrrolidin-3-yl]-2-methoxypyridine-3-carboxamide], the IC50 was 0.0088 µM.

Consider `Cc1ccc(-c2cc(C(F)(F)F)c3c(N)ncnn23)c(F)c1C(=O)N[C@@H]1CN(C(=O)[C@@](C)(O)C(F)(F)F)C[C@@H]1F` [Example 758, 3-[4-amino-5-(trifluoromethyl)pyrrolo[2,1-f][1,2,4]triazin-7-yl]-2-fluoro-N-[(3R,4S)-4-fluoro-1-[(2R)-3,3,3-trifluoro-2-hydroxy-2-methylpropanoyl]pyrrolidin-3-yl]-6-methylbenzamide], for which the IC50 worked out at 0.0034 µM.

`Nc1ncnn2c(-c3ccc(Cl)c(C(=O)N[C@@H]4CN(C(=O)C5CCC(F)(F)C5)C[C@@H]4F)c3)cc(CN3CCC(F)(F)CC3)c12` (stereo partly drawn) [Example 1148, 5-{4-amino-5-[(4,4-difluoropiperidin-1-yl)methyl]pyrrolo[2,1-f][1,2,4]triazin-7-yl}-2-chloro-N-[(3R,4S)-1-(3,3-difluorocyclopentanecarbonyl)-4-fluoropyrrolidin-3-yl]benzamide]: the IC50 was 0.001 µM.

Consider `Nc1ncnn2c(-c3ccc(Cl)c(C(=O)N[C@@H]4CN(C(=O)c5cscn5)C[C@@H]4F)c3)cc(C(F)(F)F)c12` [Example 946, 5-[4-amino-5-(trifluoromethyl)pyrrolo[2,1-f][1,2,4]triazin-7-yl]-2-chloro-N-[(3R,4S)-4-fluoro-1-(1,3-thiazole-4-carbonyl)pyrrolidin-3-yl]benzamide], for which the IC50 was 0.065 µM.

Regarding `COc1ncc(-c2ccc3c(N)ncnn23)cc1C(=O)N[C@@H]1CN(C(=O)C2CC2(F)F)C[C@@H]1F` (stereo partly drawn) [Example 156, 5-{4-aminopyrrolo[2,1-f][1,2,4]triazin-7-yl}-N-[(3R,4S)-1-(2,2-difluorocyclopropanecarbonyl)-4-fluoropyrrolidin-3-yl]-2-methoxypyridine-3-carboxamide], the IC50 was 0.1 µM.

In the case of `COc1ncc(-c2cc(CN3CCOCC3)c3c(N)ncnn23)cc1C(=O)N[C@@H]1CN(C(=O)OCC(F)(F)F)C[C@@H]1F` [Example 1717, 2,2,2-trifluoroethyl (3R,4S)-3-(5-(4-amino-5-(morpholinomethyl)pyrrolo[2,1-f][1,2,4]triazin-7-yl)-2-methoxynicotinamido)-4-fluoropyrrolidine-1-carboxylate], the IC50 came out at 0.00065 µM.

Regarding `Cc1ccc(-c2cc(CN3CCC(C(F)(F)F)CC3)c3c(N)ncnn23)cc1C(=O)N[C@@H]1CN(C(=O)C(C)(C)F)C[C@@H]1F` [Example 1651, 5-(4-amino-5-{[4-(trifluoromethyl)piperidin-1-yl]methyl}pyrrolo[2,1-f][1,2,4]triazin-7-yl)-N-[(3R,4S)-4-fluoro-1-(2-fluoro-2-methylpropanoyl)pyrrolidin-3-yl]-2-methylbenzamide], the IC50 worked out at 0.00068 µM.

Take `COc1ncc(-c2cc(CN3CCC3)c3c(N)ncnn23)cc1C(=O)N[C@@H]1CN(CC(O)C(F)(F)F)C[C@@H]1F` (stereo partly drawn) [Example 483, 5-{4-amino-5-[(azetidin-1-yl)methyl]pyrrolo[2,1-f][1,2,4]triazin-7-yl}-N-[(3R,4S)-4-fluoro-1-(3,3,3-trifluoro-2-hydroxypropyl)pyrrolidin-3-yl]-2-methoxypyridine-3-carboxamide]: the IC50 was 0.044 µM.

Take `Cc1ncc(-c2cc(C(F)(F)F)c3c(N)ncnn23)cc1C(=O)N[C@@H]1CN(C(=O)C2CC(F)(F)C2)C[C@@H]1C` [Example 292, 5-[4-amino-5-(trifluoromethyl)pyrrolo[2,1-f][1,2,4]triazin-7-yl]-N-[(3S,4S)-1-(3,3-difluorocyclobutanecarbonyl)-4-methylpyrrolidin-3-yl]-2-methylpyridine-3-carboxamide]: the IC50 is 0.133 µM.

Take `Cc1c(F)cc(-c2cc(C(F)(F)F)c3c(N)ncnn23)cc1C(=O)N[C@@H]1CN(C(=O)C2CCC2)C[C@@H]1F` [Example 663, 5-[4-amino-5-(trifluoromethyl)pyrrolo[2,1-f][1,2,4]triazin-7-yl]-N-[(3R,4S)-1-cyclobutanecarbonyl-4-fluoropyrrolidin-3-yl]-3-fluoro-2-methylbenzamide]: the IC50 stood at 0.002 µM.

For the compound `Cc1ccc(-c2cc(C(F)(F)F)c3c(N)ncnn23)c(F)c1C(=O)N[C@@H]1CN(C(=O)C2(F)CC2)C[C@@H]1F` [Example 747, 3-[4-amino-5-(trifluoromethyl)pyrrolo[2,1-f][1,2,4]triazin-7-yl]-2-fluoro-N-[(3R,4S)-4-fluoro-1-(1-fluorocyclopropanecarbonyl)pyrrolidin-3-yl]-6-methylbenzamide], the IC50 turned out to be 0.026 µM.
